Measured values as given in PubChem BioAssay AID1346428 (National Center for Advancing Translational Sciences (NCATS), 2018).
Among all 48,000 compounds or so, about 1,200 (2.5%) were called active. Not shown: some 2% with an inconclusive outcome.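 The calls were made as follows: active = activation of at least 60% and not above a set upper limit (about 1 call in 100 departs from these limits); inconclusive = activation of 40% to 60%, or above that upper limit; inactive = activation under 40%.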 This is one part of the list.

These compounds were tested against Probable G-protein coupled receptor 32 (Homo sapiens) (UniProt O75388) (assay: qHTS for Agonists of Human Resolvin D1 Receptor DRV1). Conditions: CHO-K1 GPR32 beta-arrestin PathHunter luminescence, 90 min; at 76.9 µM; stronger effect = higher value; zero percent set by DMSO-only wells.
Sequence of UniProt O75388 (O75388 whole entry, looked up): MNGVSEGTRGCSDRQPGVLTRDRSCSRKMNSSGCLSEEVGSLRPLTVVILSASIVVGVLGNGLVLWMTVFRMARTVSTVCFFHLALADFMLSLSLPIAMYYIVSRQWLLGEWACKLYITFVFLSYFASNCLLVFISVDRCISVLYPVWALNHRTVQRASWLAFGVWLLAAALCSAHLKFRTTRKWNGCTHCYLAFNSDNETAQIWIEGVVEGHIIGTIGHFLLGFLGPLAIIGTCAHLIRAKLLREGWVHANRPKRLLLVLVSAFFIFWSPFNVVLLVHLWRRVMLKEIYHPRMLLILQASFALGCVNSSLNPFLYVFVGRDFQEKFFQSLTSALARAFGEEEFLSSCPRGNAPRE
In short: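 Readings come from a cell-based beta-arrestin complementation format: CHO-K1 GPR32 stable cells (2,500/well) treated 90 min with compounds, then beta-Gal substrate added for 1 h before chemiluminescence imaging.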
Also: 0% is about no effect.

| SMILES | activation |
| --- | --- |
| Cc1nn(C(C)C(=O)NC2CCC(C)CC2)c(=O)c2c1sc1ccccc12 (centres undefined) | inactive: -16.3% |
| CCc1nc(-c2cc(S(=O)(=O)N3CCN(c4ccc(OC)cc4)CC3)ccc2OC)no1 | inactive: -2.27% |
| CCc1ccc(OCc2nc(-c3ccc(-n4cccc4)cc3)no2)cc1 | inactive: 3.31% |
| Cc1ccc(C)c(Cn2c3ccccc3c3cnn(CC(=O)N4CCCCC4)c(=O)c32)c1 | inactive: -6.06% |
| CCCN1C(C(=O)c2ccccc2)=C(OC(=O)c2ccc(F)cc2)c2ccccc2S1(=O)=O | inactive: -53.5% |
| CCOc1ccc(NC(=O)Cn2c(CCC(=O)O)ccc2-c2ccc(Cl)cc2)cc1 | inactive: -14.5% |
| CC(C)c1ccc(C2=CC(c3cccc(Cl)c3)n3ncnc3N2)cc1 (centres undefined) | active: 73.7% |
| Cc1ccc(NC(=O)CCS(=O)(=O)c2cccc3nonc23)c(C)c1 | inactive: -6.39% |
| COc1ccc(Cl)cc1NC(=O)c1cc(S(=O)(=O)N2CCc3ccccc32)cn1C | inactive: -5.87% |
| Cc1nn(CCC(=O)NC(C)C)c(=O)c2nn(-c3ccccc3)c(C)c12 | inactive: 4.55% |
| COc1cc2c(C(=O)N3CCN(c4cccc(C)c4)C(C)C3)cn(CC(C)C)c(=O)c2cc1OC (centres undefined) | inactive: 0.0592% |
| Cc1cccc(-n2c(=O)c3ccccc3n(Cc3ccccc3C#N)c2=O)c1 | inactive: -10.4% |
| O=C(CSc1nc2c([nH]c3ccccc32)c(=O)n1-c1cccc(Cl)c1)N1CCc2ccccc21 | inactive: 9.87% |
| CCc1nnc(NC(=O)c2nc(S(C)(=O)=O)ncc2Cl)s1 | inactive: 41.7% |
| Cc1ccc2nc(NCc3ccccc3Cl)c3nnnn3c2c1 | inactive: -5.49% |
| COc1cccc(Cc2nc3ccccc3nc2SCC(=O)N2CCCCC2C)c1 (centres undefined) | inactive: -6.24% |
| COc1cccc(C(=O)CN2CCN(S(=O)(=O)c3ccc(Cl)cc3)CC2)c1 | inactive: -39.2% |
| CC(C)(C)c1ccc(C(=O)CCCCl)cc1 | inactive: 12.7% |
| CCOc1ccccc1NC(=O)c1sc2nc3c(cc2c1N)CN(Cc1ccccc1)CC3 | inactive: -25.8% |
| O=C(CN1C(=O)CSc2ccc(S(=O)(=O)N3CCCCC3)cc21)NCc1ccc(F)cc1Cl | inactive: 12.4% |
| O=C(NCc1ccco1)c1ccc2c(c1)N(Cc1ccc(F)cc1)C(=O)c1ccccc1S2=O (centres undefined) | inactive: -2.88% |
| COc1cc(NC(=O)CCc2c(C)n(C)c3cc(-c4ccccc4C)nn3c2=O)cc(OC)c1OC | inactive: -8.7% |
| COc1cc2ccccc2cc1C(=O)Nc1ccc2oc(-c3cc(Br)ccc3Cl)nc2c1 | inactive: -2.99% |
| CCCOC(=O)C(C)n1nnc2sc(-c3ccccc3)cc2c1=O (centres undefined) | inactive: 1.27% |
| Cc1ccn2c(Nc3ccc4c(c3)OCO4)c(-c3ccc(O)cc3)nc2c1 | inactive: -4.92% |
| CCCCN1CCCC1C(=O)Nc1c(C)cc(C)cc1C (centres undefined) | inactive: -20.5% |
| CCCCOc1ccc(S(=O)(=O)n2nc(C)c(S(=O)(=O)N3CCC(C)CC3)c2C)cc1 | inactive: 9.19% |

| SMILES | activation |
| --- | --- |
| O=C(CSCc1cnn(-c2ccccc2)c1-n1cccc1)NCc1ccccc1F | inactive: -15.4% |
| COc1cccc(CNS(=O)(=O)c2cc(Br)cc3c2N(C(C)=O)C(C)C3)c1 (centres undefined) | inactive: -0.955% |
| CCCN1CCN(c2ncnc3sc(C(=O)Nc4ccc(N(CC)CC)cc4C)c(C)c23)CC1 | inactive: -24.7% |
| Cc1ccc2oc(C(=O)Nc3ccc(S(=O)(=O)N(C)Cc4ccccc4)cc3)cc(=O)c2c1 | inactive: 23% |
| CN(C)CCCO[C@@H]1[C@H]2OC(C)(C)O[C@H]2O[C@@H]1[C@H](O)CO | inactive: 8.73% |
| Cc1cccc(Cc2cnc(NC(=O)c3ccc4c(c3)CC(c3ccccc3)OC4=O)s2)c1 (centres undefined) | inactive: 12.2% |
| CCc1ccc(-n2c(=O)c3c4c(sc3n(CC(=O)NCCCOC)c2=O)CCC4)cc1 | inactive: -19.2% |
| COc1cccc(CC(=O)NCc2ccc3c(c2)CCN3C(C)=O)c1 | inactive: -14.8% |
| CCc1ccccc1NC(=O)C1CCN(c2nn3c(=O)cc(C)nc3s2)CC1 | inactive: 7.98% |
| CN(C)S(=O)(=O)Nc1ccc(-c2cn3ccsc3n2)cc1 | inactive: 8.71% |
| COC(=O)c1ccccc1NC(=O)c1nc(S(=O)(=O)Cc2ccccc2F)ncc1Cl | inactive: -9.46% |
| C[C@]12CC[C@@H]3c4ccc(O)cc4CC[C@H]3[C@@H]1C[C@@H](O)[C@@H]2O | inactive: -3.95% |
| Cc1ccc(-n2nc(C(=O)N3CCN(c4ccccc4)CC3)c(=O)n(C)c2=O)cc1 | inactive: 3.48% |
| CC(NC(=O)c1ccc2nc(CCc3ccccc3)oc2c1)c1ccccc1 (centres undefined) | inactive: -13.5% |
| Cc1ccccc1Cn1c(C)c(CNCc2ccccc2)c(C(=O)O)c1C | inactive: 0.048% |
| CC(C)Oc1ccc(CNC(=O)c2ccc3nc(SCc4ccc(F)cc4)n(C)c3c2)cc1 | inactive: 1.14% |
| Cc1ccc(C)c(NC(=O)CCc2c(C)n(C)c3cc(-c4ccccc4C)nn3c2=O)c1 | inactive: -11.5% |
| COc1ccc(NC(=O)c2nc(SCc3ccccc3F)ncc2Cl)cc1 | inactive: -11.7% |
| O=C(NCCc1ccc(Cl)cc1)c1ccc2c(c1)N(Cc1ccccc1)CCS2 | inactive: -11.4% |
| COc1cccc(N2CCN(C(=O)c3ccc(CS(=O)c4cccc(Cl)c4)o3)CC2)c1 (centres undefined) | inactive: -12.6% |
| O=C(Nc1ccc2oc(-c3cccnc3)nc2c1)c1ccc(-c2cccc(OC(F)(F)F)c2)o1 | inactive: -5.58% |
| COc1ccc(NC(=O)CN(C)S(=O)(=O)c2ccc3[nH]c4c(c3c2)CCCC4)cc1OC | inactive: 3.5% |
| Cc1ccc(CN(C(=O)c2ccccc2Br)C2CCS(=O)(=O)C2)o1 (centres undefined) | inactive: -17.8% |
| CC1CCC(NC(=O)c2ccc3c(c2)N(Cc2cccc(Cl)c2)C(=O)c2ccccc2S3=O)CC1 (centres undefined) | inactive: -23.6% |
| O=C(NCc1ccc(Cl)cc1)C(=O)Nc1cccc(Br)c1 | inactive: 38.3% |
| O=C(Nc1ccc2oc(-c3ccc4ccccc4c3)nc2c1)c1cc(Br)ccc1Cl | inactive: 0.225% |
| Cn1c(=O)c2c(SCC(=O)NCc3ccco3)nc(-c3ccccc3F)nc2n(C)c1=O | inactive: -10.8% |
